# Data taken from PubChem BioAssay AID1030 (National Center for Advancing Translational Sciences (NCATS), 2008).
# In all, about 220,000 compounds went through this assay and about 16,000 (7.3%) were called active. The shares of active, inactive and inconclusive entries below differ from those in the screen. Calls come from the whole dose curve; as a rule, active = well fitted inhibition curve with a large enough effect (not every such curve was filed as active); inconclusive = small, poorly fitted or top-dose-only effect, or another doubt; inactive = no such curve, though single readings can be large or run the other way. Potencies of inconclusive entries are left out as doubtful fits.
# Biological target: Aldehyde dehydrogenase 1A1 (Homo sapiens) (UniProt P00352)
# UniProt P00352, sequence (P00352 whole entry, looked up): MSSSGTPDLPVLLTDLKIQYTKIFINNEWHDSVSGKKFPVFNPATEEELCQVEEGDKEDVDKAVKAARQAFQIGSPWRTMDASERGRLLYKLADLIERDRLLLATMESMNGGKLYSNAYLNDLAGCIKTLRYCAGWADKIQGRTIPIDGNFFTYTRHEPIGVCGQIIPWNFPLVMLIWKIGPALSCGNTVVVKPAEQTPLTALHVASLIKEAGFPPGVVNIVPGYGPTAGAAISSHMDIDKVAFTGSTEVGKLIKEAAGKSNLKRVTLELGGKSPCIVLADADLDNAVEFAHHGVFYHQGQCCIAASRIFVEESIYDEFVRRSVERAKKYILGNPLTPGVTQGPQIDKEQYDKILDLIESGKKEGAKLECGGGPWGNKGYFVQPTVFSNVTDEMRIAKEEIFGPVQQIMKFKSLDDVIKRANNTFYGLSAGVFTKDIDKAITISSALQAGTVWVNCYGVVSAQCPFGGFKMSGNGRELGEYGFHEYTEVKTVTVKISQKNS
# Assay: qHTS Assay for Inhibitors of Aldehyde Dehydrogenase 1 (ALDH1A1);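 for activity, negative = inhibition: plate controls were no enzyme wells and a reference inhibitor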
# Conditions: Purified ALDH1A1, NADH fluorescence, propionaldehyde substrate; series mostly up to 75.3 µM; activity, negative = inhibition: at the top concentration
# Potency is the fitted concentration of half-maximal effect; tags give direction and shape of the fitted curve.
Structure (SMILES),Potency,"activity, negative = inhibition"
Cc1ccc(-n2cccc2/C=C2/C(=N)N3C(=NC2=O)SN=C3S(C)(=O)=O)cc1,"inconclusive [inhibitor, single point]",–
Cc1cc(C)nc(SCCN2CCOCC2)n1,–,inactive: 11%
O=C(Nc1ccc(-c2nnn(CC(=O)N3CCN(C(=O)c4ccco4)CC3)n2)cc1)c1ccccc1F,"inconclusive [inhibitor, single point]",–
O=C1OCCN1C(=O)[C@H]1[C@H](c2ccccc2)C(c2ccc(F)cc2)=NN1c1ccccc1,"inconclusive [inhibitor, partial curve]",–
Cc1nc(N2CCOCC2)sc1C=O,–,inactive: -6.29%
COC(=O)CSc1nc(N2CCOCC2)c2c(c1C#N)CC(C)(C)N(C)C2,"inconclusive [inhibitor, single point]",–
O=c1c(Cl)c(Cl)cnn1Cc1nnc(-c2ccccc2Br)o1,active: 3.55 µM,–
Cc1ccc(NC(=O)CCCCCN2C(=O)c3ccccc3C2=O)nc1,–,inactive: -9.25%
CSc1nc(N)nc(SCC(=O)OC(C)C)c1C#N,"inconclusive [inhibitor, partial curve]",–
COC(=O)C1C(O)=C(C(C)=Nc2cccc3ccccc23)C(=O)CC1(C)C (centres undefined),"inconclusive [inhibitor, partial curve]",–
COC(=O)C(C(C)=O)C(=O)C(Cc1ccccc1)NC(=O)OCc1ccccc1 (centres undefined),"inconclusive [inhibitor, partial curve]",–
Cc1cc(OC(=O)c2ccc(S(=O)(=O)N(C)C)cc2)cc(=O)o1,"inconclusive [inhibitor, single point]",–
CCCCn1c(SCC(=O)c2ccc(OC)cc2OC)nc2cc(S(N)(=O)=O)ccc21,active: 7.08 µM,–
COc1ccc(OC)c(C2C(C(C)=O)=C(O)C(=O)N2Cc2cccnc2)c1 (centres undefined),active: 28.2 µM,–
CS(=O)(=O)N(Cc1ccc(C(=O)NCCSCc2ccco2)cc1)c1ccccc1,–,inactive: 14.3%
C/C(=N/NC(=O)CNC(=O)c1cccnc1)c1cccc([N+](=O)[O-])c1,–,inactive: 0.752%
C=CCn1c(SCc2csc(-c3ccc(C)cc3)n2)nnc1-c1ccccc1OC,–,inactive: 2%
COc1ccccc1NS(=O)(=O)c1cc(NC(=O)c2cccs2)ccc1N1CCCC1,active: 12.6 µM,–
CC1(C)CC(=O)c2cc(OCC(=O)NCCN3CCOCC3)ccc2O1,"inconclusive [inhibitor, partial curve]",–
Clc1ccc(COc2ccccc2-c2ccnc3ncnn23)cc1,"inconclusive [inhibitor, partial curve]",–
Cc1cc(C)nc(-n2nc(C)c(C3(O)C(=O)Nc4ccccc43)c2N)n1 (centres undefined),"inconclusive [inhibitor, single point]",–
CCOC(=O)N1CCC(NC(=O)c2ccc(CS(=O)(=O)c3c(Cl)cccc3Cl)o2)CC1,"inconclusive [inhibitor, partial curve]",–
CCN1CNC(=S)N(C(C)c2ccccc2)C1 (centres undefined),–,inactive: 22.6%
CC1=C(C(=O)OC(C)(C)C)C(c2cccs2)NC(=O)N1 (centres undefined),"inconclusive [inhibitor, single point]",–
CN1CCN(c2ncnc3ccc(-c4cccc(NS(C)(=O)=O)c4)cc23)CC1,"inconclusive [inhibitor, single point]",–

Structure (SMILES),Potency,"activity, negative = inhibition"
Cc1ccc(S(=O)(=O)/N=S(\C)CC2CC2(Cl)Cl)cc1 (centres undefined),active: 10 µM,–
Cc1ccc(NC(=O)C2CCN(S(=O)(=O)c3cccs3)CC2)cc1C,"inconclusive [inhibitor, partial curve, poor fit]",–
C/C(=N\NC(=S)Nc1ccc(F)cc1)C1CC1,active: 15 µM,–
C=C(C)C1Cc2c(C)nn(-c3nc(C)cc(C)n3)c2C1 (centres undefined),active: 20 µM,–
CCCc1nc2sc(C(=O)OCC)c(N)c2c2c1COC(C)(C)C2,"inconclusive [inhibitor, partial curve]",–
CCOc1ccc2cc(C#N)c(SCC(=O)N3CCC(C)CC3)nc2c1,"inconclusive [inhibitor, single point]",–
CN(C)S(=O)(=O)c1cccc(NC(=O)c2cc3c(cc2Cl)N2CCCCCC2=NS3(=O)=O)c1,"inconclusive [inhibitor, partial curve]",–
O=c1c(C/C=C/c2ccccc2)c(O)ccn1CCc1c[nH]c2ccccc12,active: 39.8 µM,–
CCCn1c(O)c(C=Nc2ccccc2)sc1=S,active: 14.1 µM,–
COC(=O)c1ccc(NC(=S)NC2CC2)cc1,–,inactive: -4.12%
O=C(NC(Nc1nc2ccc([N+](=O)[O-])cc2s1)(C(F)(F)F)C(F)(F)F)c1cccnc1,"inconclusive [inhibitor, single point]",–
CC1=CC(=NOC(=O)/C=C/c2ccccc2)C=C(C)C1=O,"inconclusive [inhibitor, single point]",–
COc1ccccc1C(=O)Nc1ccc2c(c1)nc1n2CCSC1,"inconclusive [inhibitor, single point]",–
Cc1cc(NC(=O)c2ccc(C)s2)n(-c2ccccc2)n1,–,inactive: 3.92%
Cc1ccc(S(=O)(=O)N/N=C\c2cc3c(cc2[N+](=O)[O-])OCO3)cc1,active: 1.26 µM,–
COCCn1c(=O)[nH]c(=O)c2c(C(F)(F)F)cc(-c3cccs3)nc21,"inconclusive [inhibitor, partial curve]",–
CC(C)c1ccc(-c2nn(-c3ccccc3)cc2C2C(C#N)=C(N)OC3=C2C(=O)CC(C)(C)C3)cc1 (centres undefined),–,inactive: -6.99%
O=C(NC(=S)N1CCN(Cc2ccc3c(c2)OCO3)CC1)c1cccc(Br)c1,"inconclusive [inhibitor, single point]",–
CC1CCCN(c2nc3ccccc3nc2C(C#N)S(=O)(=O)c2ccccc2)C1 (centres undefined),"inconclusive [inhibitor, single point]",–
Cc1nc(NCCNC(=O)c2ccco2)c2c(C)c(C)sc2n1,active: 14.1 µM,–
COc1ccccc1-c1nc(C#N)c(N2CCC(C(N)=O)CC2)o1,"inconclusive [inhibitor, partial curve]",–
NC(=O)c1ccccc1N=Cc1ccccn1,"inconclusive [inhibitor, partial curve]",–
CN(CC(=O)NC(=O)NCc1ccco1)Cc1nc2ccccc2c(=O)[nH]1,"inconclusive [inhibitor, single point]",–
COc1ccc(CNCCc2ccc(Cl)cc2)cc1OCc1ccccc1,"inconclusive [inhibitor, single point]",–
COc1ccc(C2OCC3(COC(C)=O)C(C)C=C(C)C2C3C)cc1 (centres undefined),–,inactive: 5.17%

Structure (SMILES),Potency,"activity, negative = inhibition"
CCc1ccc2c(c1)C1(NN=C(c3ccccc3)S1)C(=O)N2 (centres undefined),active: 28.2 µM,–
O=[N+]([O-])c1ccc(C(=S)N2CCN(Cc3ccccc3)CC2)cc1,active: 14.1 µM,–
O=C(N/C(=C\c1ccc(Br)cc1)C(=O)N1CCCC1)c1cccs1,"inconclusive [inhibitor, single point]",–
CCCCOc1ccc(Cl)cc1CSc1nnc(C)n1N,–,inactive: 3.68%
OCCN(Cc1ccccc1)C(=S)Nc1ccc(F)cc1,–,inactive: 2.66%
O=C(CC1CS(=O)(=O)CC1CC(=O)Oc1ccccc1F)Oc1ccccc1F (centres undefined),active: 7.08 µM,–
COC(=O)c1cc(=O)nc2sccn12,"inconclusive [inhibitor, single point]",–
CCCCn1c2c(c(=O)n(C)c1=O)C(c1ccc(OC)cc1)N1CCCCCC1=N2 (centres undefined),active: 0.141 µM,–
COc1ccc(-c2csc(NC(C)=O)n2)cc1OC,"inconclusive [inhibitor, single point]",–
N#CC1CC(c2ccccc2)=NN1c1ccccc1[N+](=O)[O-] (centres undefined),–,inactive: -9.08%
COc1ccccc1-c1nnc(Nc2nc3c(OC)cccc3s2)o1,"inconclusive [inhibitor, partial curve]",–
CCCC(=O)NC(=S)Nc1cccc(-c2nc3ncccc3o2)c1,"inconclusive [inhibitor, single point]",–
C#CCn1c(=NC(=O)c2ccc(Br)s2)sc2cc(NC(C)=O)ccc21,–,inactive: 8.39%
CCn1c(=N)c(C(=O)NCc2cccnc2)cc2c(=O)n3cccc(C)c3nc21,"inconclusive [inhibitor, partial curve]",–
O=C(Nc1ccccc1)c1ccccc1OCC(O)CN1C(=O)c2ccccc2S1(=O)=O (centres undefined),"inconclusive [inhibitor, single point]",–
c1ccc(C2NCCn3cccc32)cc1 (centres undefined),"inconclusive [inhibitor, single point]",–
COC(=O)CSc1nc(N)c(C#N)c(CC(C)C)c1C#N,"inconclusive [inhibitor, partial curve]",–
CC1CCCC(NC(=O)c2ccc3c(c2)N(Cc2ccccc2)C(=O)CS3=O)C1C (centres undefined),"inconclusive [inhibitor, single point]",–
CN(c1ccccc1)S(=O)(=O)c1ccc(NC(=S)NC(=O)c2ccccc2)cc1,active: 10 µM,–
CCC(CO)[n+]1c(C)cc(/C=C2\Sc3ccccc3N2Cc2ccccc2)cc1C (centres undefined),"inconclusive [inhibitor, partial curve]",–
O=C(O)c1cccc(Nc2ncnc3sccc23)c1,"inconclusive [inhibitor, single point]",–
Cc1ccc(-c2nn(-c3ccccc3)cc2C(N)=O)o1,"inconclusive [inhibitor, partial curve]",–
COC(=O)/C=C1\OC(c2ccccc2)=CC1=O,active: 10 µM,–
COc1ccc(C(=O)c2oc3ccc(OC)cc3c2NC(C)=O)cc1,"inconclusive [inhibitor, single point]",–
